Experimental findings from the supplement of paper PMC10600219 are described below.

Structures can show the parent of a compound that is named as a salt. Over roughly 2,800 compounds, “cell viability relative to vehicle” has its median near 1.1; the lowest 2% begin near 0.19. Some of the results follow.

The assay concerns NCI-H2228 parental. The assay is described as follows: cell viability relative to vehicle (fraction of vehicle); NCI-H2228 is an ALK-positive lung cancer line and DTP means drug-tolerant persister; higher = less growth inhibition. Particulars: 100 nM; treatment time 6 days. The method, boiled down:
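Drug-tolerant persister NCI-H2228 cells, produced by 13 days in 1000 nM of a targeted drug, and their parental counterparts were seeded into 384-well plates and, the following day, given the 3114-agent TargetMol anti-cancer compound library at 100 nM or DMSO vehicle. After 6 days, the CellTiter-Glo 3D Cell Viability Assay was used to read ATP. Each entry reports viability compared with vehicle-treated cells.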
Take `CCc1cn([C@H]2C[C@H](O)[C@@H](CO)O2)c(=O)[nH]c1=O` [Edoxudine]: the cell viability was 1.04.
The result for `CN1C(=O)C(C)(C)Oc2c(-c3cn(C)c(=O)c4[nH]ccc34)cc(S(C)(=O)=O)cc21` reads 0.935; that for `COC(=O)C1=CC[C@@]23CC[C@@H]([C@@](C)(/C=C/C=C(\C)C(=O)O)OC2=O)[C@@]3(OC(C)=O)CC1` [Pseudolaric Acid B], 1.03.
The result for `CCCCNNC(=O)c1ccc(-c2cccc(F)c2F)cc1` reads 1.03; that for `Cc1c(N(C)CS(=O)(=O)O)c(=O)n(-c2ccccc2)n1C` [Analgin], 0.98.
Regarding `C[C@@H]1CCN(C(=O)CC#N)C[C@@H]1N(C)c1ncnc2[nH]ccc12` [Tofacitinib], the cell viability amounted to 1.
The result for `O=c1[nH]c(=O)n(C2CCCO2)cc1F` (stereo not drawn) [Tegafur] reads 0.988; that for `Cc1cc2c(F)c(Oc3ncnn4cc(OC[C@@H](C)OC(=O)[C@H](C)N)c(C)c34)ccc2[nH]1` [Brivanib Alaninate], 0.914; that for `CCOC(=O)Nc1cc(-c2ccc(C)c(NS(C)(=O)=O)c2)nn2c(C)nnc12` [Bromosporine], 1.
`COc1cc2c3cc1Oc1c(OC)c(OC)cc4c1[C@@H](Cc1ccc(O)c(c1)Oc1ccc(cc1)C[C@@H]3N(C)CC2)N(C)CC4` [Berbamine]: the cell viability is 1.03.
In the case of `CN1CCN(c2c(F)cc3c(=O)c(C(=O)O)cn(CCF)c3c2F)CC1` [Fleroxacin], the cell viability stood at 1.15.
`C[C@H](CCC(=O)O)[C@H]1CC[C@H]2[C@@H]3[C@H](O)C[C@@H]4C[C@H](O)CC[C@]4(C)[C@H]3CC[C@]12C` [Chenodeoxycholic acid]: the cell viability was 1.26.
The result for `NC(=O)c1ccccc1Nc1ccnc(Nc2cccc(O)c2)n1` reads 1.01; that for `NNc1nncc2ccccc12` [Hydralazine hydrochloride], 1; that for `CC(=O)OCC(CCn1cnc2cnc(N)nc21)COC(C)=O` [Famciclovir], 1.07.
The result for `NCC(O)CC(=O)O` (stereo not drawn) [4-Amino-3-hydroxybutyric Acid] reads 1.17; that for `O=c1cc(-c2ccc(O[C@@H]3O[C@H](CO)[C@@H](O)[C@H](O)[C@H]3O)cc2)oc2cc(O)c([C@@H]3O[C@H](CO)[C@@H](O)[C@H](O)[C@H]3O[C@@H]3OC[C@H](O)[C@H](O)[C@H]3O)c(O)c12` [Vaccarin], 1.09.
`C=CC(=O)Nc1cccc(Oc2nc(Nc3ccc(N4CCN(C)CC4)cc3OC)ncc2Cl)c1`: the cell viability came to 1.19.
The result for `O=C(/C=C/c1ccc(O)c(O)c1)OCCc1ccccc1` [Caffeic Acid Phenethyl Ester] reads 1.03; that for `CC[C@H](C)C(=O)O[C@H]1CCC=C2C=C[C@H](C)[C@H](CC[C@@H]3C[C@@H](O)CC(=O)O3)[C@H]21` [Mevastatin], 1.19; that for `C=C1C[C@@]23CC[C@H]4[C@@](C)(CCC[C@@]4(C)C(=O)O)[C@@H]2CC[C@]1(O[C@@H]1O[C@@H](CO)[C@@H](O)[C@H](O)[C@@H]1O[C@@H]1O[C@@H](CO)[C@@H](O)[C@H](O)[C@@H]1O)C3` [steviolbioside], 0.981.
Consider `O=c1oc2ccccc2c(O)c1Cc1c(O)c2ccccc2oc1=O` [Dicumarol], for which the cell viability was 1.05.
As for `CS(=O)(=O)N1CCc2c(-c3cnc(N)nc3)nc(N3CCOCC3)nc21`, the figure is 0.926; as for `CN(C)C[C@@H]1CCn2cc(c3ccccc32)C2=C(C(=O)NC2=O)c2cn(c3ccccc23)CCO1` [Ruboxistaurin hydrochloride], 1.
The result for `Cc1nc(=O)c2cc(CN(C)c3ccc(C(=O)N[C@@H](CCC(=O)O)C(=O)O)s3)ccc2[nH]1` [Raltitrexed] reads 0.151; that for `O=C1c2ccccc2C(=O)c2c1ccc(O)c2O` [Alizarin], 1.22.
The result for `CCCOc1ccn2c(C(C)=O)cc(-c3ccccc3S(C)(=O)=O)c2c1` reads 0.991.
As for `Cc1cnc(NC(=O)C2=C(O)c3ccccc3S(=O)(=O)N2C)s1` [Meloxicam], the cell viability amounted to 1.06.
For the molecule `O=C(O)CCCc1ccccc1` [Sodium Phenylbutyrate], the cell viability is 1.36.
The result for `CC1(C)O[C@@H]2C[C@H]3[C@@H]4CCC5=CC(=O)C=C[C@]5(C)[C@@]4(F)[C@@H](O)C[C@]3(C)[C@]2(C(=O)CO)O1` [Triamcinolone acetonide] reads 1.02.
As for `COc1cc(O)cc(O)c1C(=O)/C=C/c1ccccc1` [Cardamonin], the figure is 1.06; as for `C[C@@H]1C[C@H]2[C@@H]3CCC4=CC(=O)C=C[C@]4(C)[C@@]3(F)[C@@H](O)C[C@]2(C)[C@@]1(O)C(=O)CO` [Dexamethasone], 0.864.
The result for `CC1(C)OCCn2c1nc1c(N3CCOCC3)nc(-c3cnc(N)nc3)nc12` reads 0.739; that for `CC(C)Oc1ccc(C(=O)N[C@H](CNC(=O)CN(C)C)Cc2ccc(-c3cn4cccc([C@H](C)O)c4n3)cc2)cc1Cl`, 0.15.
For the molecule `O=C(O)COC(=O)Cc1ccccc1Nc1c(Cl)cccc1Cl` [Aceclofenac], the cell viability stood at 1.28.
As to `Cc1nnc(NS(=O)(=O)c2ccc(N)cc2)s1` [Sulfamethizole], the cell viability is 1.14.
For the molecule `CN(C)c1ccc(/C=C2/C(=O)Nc3ccccc32)cc1`, the cell viability turned out to be 1.05.
For `COc1cc(NS(C)(=O)=O)ccc1Nc1c2ccccc2nc2ccccc12` [Amsacrine], the cell viability is 0.209.
On to `NC(=O)Cc1cc[nH]n1` [1H-Pyrazole-3-acetamide], for which the cell viability was 0.268.
As for `COc1ccc(/C=C/C(=O)c2c(O)cc(OC)cc2OC)cc1` [Flavokawain A], the cell viability was 1.08.
The result for `FC(F)c1nc2ccccc2n1-c1nc(N2CCOCC2)nc(N2CCOCC2)n1` reads 0.983.
As for `CN(C(=O)CNC(=O)/C=C/c1cccc(Cl)c1)C1CCS(=O)(=O)CC1`, the figure is 0.834; as for `CCN1CCN(c2cc3c(cc2F)c(=O)c(C(=O)O)cn3C2CC2)CC1` [Enrofloxacin], 1.03.
As for `C1CCN2C[C@@H]3C[C@@H](CN4CCCC[C@@H]34)[C@H]2C1` [(-)-Sparteine sulfate pentahydrate], the figure is 0.914; as for `COc1ccccc1S(=O)(=O)Nc1ccc2c(c1)CN(C)C(=O)N2`, 1.12.
In the case of `COc1ccc(CCC(=O)c2ccc(O)cc2)c(OC)c1` [Loureirin A], the cell viability is 1.01.
On to `O=c1cc(-c2ccc(O)c(-c3c(O)cc(O)c4c(=O)cc(-c5ccc(O)cc5)oc34)c2)oc2cc(O)cc(O)c12` [Amentoflavone], for which the cell viability is 1.08.
As for `Cc1ccc(Cl)c(Nc2ccccc2C(=O)O)c1Cl` [Meclofenamate Sodium], the figure is 0.911.
